Test results taken from publication PMC12136788.
This is one part of the list.

T1: UNK ZnF1-6 (called full-length) (human, UniProt Q9C0B0 30-357)
T1 sequence: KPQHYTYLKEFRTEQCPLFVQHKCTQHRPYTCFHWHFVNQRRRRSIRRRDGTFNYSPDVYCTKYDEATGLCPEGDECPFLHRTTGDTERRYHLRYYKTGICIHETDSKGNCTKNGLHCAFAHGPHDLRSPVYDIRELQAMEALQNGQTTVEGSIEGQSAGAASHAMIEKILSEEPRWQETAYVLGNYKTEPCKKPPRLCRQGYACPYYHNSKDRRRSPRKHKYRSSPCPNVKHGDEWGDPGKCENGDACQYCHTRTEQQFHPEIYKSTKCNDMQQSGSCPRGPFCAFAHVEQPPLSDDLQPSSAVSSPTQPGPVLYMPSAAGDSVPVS

B1: ENSG00000070961:be:win_4751|3pUTR|ENSG00000070961|bound_else_gene|NA|bound_elsewhere_windowed (ssRNA)
RNA: GGGAGUUCUACAGUCCGACGAUCGAAAAAGGUUAAUAAGUAGAAGCAUACAUGUUUUCCUUUUGUUUUUGAAACUUGUUUGUAAACAUAAAUAAAUAUGCCCUUUUAUUAAAUAAAUUCAUGGCAAUGUUUUUUUAAAAGACACAACAGAGGAUUGAGCAUCA
B2: ENSG00000107863:be:win_301|CDS|ENSG00000107863|bound_else_gene|NA|bound_elsewhere_windowed (ssRNA)
RNA: GGGAGUUCUACAGUCCGACGAUCACCAUAUUUGUUAAGCAAGUUAAAGAAGGAGGACCUGCUUUUGAAGCUGGAUUAUGUACAGGUGACCGAAUUAUAAAAGUCAAUGGAGAAAGUGUUAUUGGCAAAACCUAUUCCCAAGUACAACAGAGGAUUGAGCAUCA
B3: chr17:30468017:30468118:+|3pUTR|ENSG00000108582|unk|FALSE|unique (ssRNA)
RNA: GGGAGUUCUACAGUCCGACGAUCGCUAAAAUUUUGGGGAUAUGAUUUGGGUCUUUGAUUAAUGUCAGCUGAACUUGGAUUUCUAGUUCAUGAAGAAAUCUCUCCCAAUACCCAUUUAUCCUAUUUUUAGCAAUAAUUCGUUAACAACAGAGGAUUGAGCAUCA
B4: chr8:93923365:93923466:+|CDS|ENSG00000164951|msi1|total|mutant (ssRNA)
RNA: GGGAGUUCUACAGUCCGACGAUCGCAGGAUGUGGUCCGGAUUGUGGGUGAGUACCUAACUGGCAUGCAUCACCAACAGCCAACCGCUGUUGGUGGCUACAAGGUGACUCUGGGACAGAUGCAUGGCCUUUUAACAGAAAGGAGCAACAGAGGAUUGAGCAUCA
B5: chr12:48147896:48148005:-|3pUTR|ENSG00000177981|unk|FALSE|unique (ssRNA)
RNA: GGGAGUUCUACAGUCCGACGAUCCUGCUUUAGUGAACGAUACUCUUUCAUUUUUCUAAAUUAGAUCAAGUUGUUAUUGAUUUUAGAUGACUUGUAUGCAAAUUUGAAAAACUUUUUUUUUUAAAGCUGAUUGGGAACUACAAACAACAGAGGAUUGAGCAUCA
B6: chr1:45003092:45003193:-|3pUTR|ENSG00000126107|msi1|total|mutant (ssRNA)
RNA: GGGAGUUCUACAGUCCGACGAUCGGAAUCUUCCACAAGCCCAGCACAAGCUGCCAGGCCUGAGCUACUUGAAGGGGGCCAUCCCGGUCCCCAACCCAUGGACUUUGCCUCCAUUUUCAGCUCCGCCUUUUUUCUCCUAUUUUCCAACAGAGGAUUGAGCAUCA

What follows are binders tested against T1, UNK ZnF1-6 (called full-length) (assay: nsRBNS (natural sequence RNA bind-n-seq); RBNS binding buffer (assumed for nsRBNS): 25 mM Tris pH 7.5, 150 mM KCl, 3 mM MgCl2, 0.01% Triton X-100, 500 ug/ml BSA, 20 U/ml SUPERase-In, 4 C; UNK is unkempt and MSI1 is Musashi-1; names of the RNAs are library labels; protein concentration not given here; high values mean tight binding).

Binder	binding signal
B1	0.52 enrichment R
B2	0.314 enrichment R
B3	0.512 enrichment R
B4	0.603 enrichment R
B5	0.7 enrichment R
B6	0.589 enrichment R
